Experimental data taken from the supplement of paper PMC12217912.
This is one part of the list. Sequences were assembled here from the parent chain. Values near 0.05 are background.

B1: TEV protease; numbered along this chain (parent)
chain: MGESLFKGPRDYNPISSSICHLTNESDGHTTSLYGIGFGPFIITNKHLFRRNNGTLVVQSLHGVFKVKDTTTLQQHLVDGRDMIIIRMPKDFPPFPQKLKFREPQREERICLVTTNFQTKSMSSMVSDTSCTFPSGDGIFWKHWIQTKDGQCGSPLVSTRDGFIVGIHSASNFTNTNNYFTSVPKNFMELLTNQEAQQWVSGWRLNADSVLWGGHKVFMVKPEEPFQPVKEATQL

Variants of: B1
Experiment: raw area under fraction-flipped curve 0-4 h after induction (AUC4h, not background-subtracted), DNA-recorder readout of cleavage of the substrate (dimensionless); higher = more cleavage of the substrate by the protease variant
Settings: temperature: 34 °C; time window: 0-4 h after rhamnose induction
Protocol: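 In vivo DNA recorder in E. coli TOP10(DE3) ΔrhaA at 34 °C. Each TEVp single-site mutant (parent TEVp 0) is paired with a single-site variant of the 7-mer TEVs (canonical ENLYFQ|S). The substrate sits between flexible linkers in a Bxb1-sfGFP-TEVs-SsrA fusion, so cleavage stabilises Bxb1 and speeds flipping of a recombination array, read by NGS. The value is the raw area under the fraction-flipped curve over 0-4 h after rhamnose induction (AUC4h), with ≥20 reads per time point. It is not background-subtracted; inactive controls average about 0.047.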
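Further: Bxb1 expression induced with 0.2% (w/v) L-rhamnose at OD600 near 0.5, cultures sampled hourly, flipped fraction per protease–substrate barcode pair counted by paired-end Illumina sequencing.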

Row | Variant | area with substrate ENLYFQA | area with substrate ENLYFQC | area with substrate ENLYFQD | area with substrate ENLYFQG | area with substrate ENLYFQI | area with substrate ENLYFQK | area with substrate ENLYFQL | area with substrate ENLYFQM | area with substrate ENLYFQN | area with substrate ENLYFQP | area with substrate ENLYFQQ | area with substrate ENLYFQR | area with substrate ENLYFQS | area with substrate ENLYFQT | area with substrate ENLYFQV | area with substrate ENLYFQY | area with substrate ENLYFQE | area with substrate ENLYFQW | area with substrate ENLYFQH | area with substrate ENLYFQF
1 | L48D | 0.0591 | 0.0813 | 0.0495 | 0.0656 | 0.0629 | 0.0575 | 0.056 | 0.0627 | 0.0661 | 0.0557 | 0.0641 | 0.0654 | 0.0613 | 0.0588 | 0.0654 | 0.0594 | – | – | – | –
2 | L48P | 0.0565 | 0.0546 | 0.0623 | 0.0607 | 0.0564 | 0.0595 | 0.0587 | 0.065 | – | 0.0527 | – | 0.0581 | 0.0602 | 0.0578 | 0.0673 | – | 0.0465 | 0.0471 | – | –
3 | L48Y | 0.063 | – | – | 0.0661 | 0.0571 | – | – | 0.0737 | 0.0519 | – | 0.0528 | 0.0619 | 0.0634 | 0.0645 | 0.0518 | – | 0.0654 | 0.0655 | 0.0519 | –
4 | T55Q | 0.0773 | 0.145 | – | 0.119 | 0.0637 | 0.0716 | 0.0511 | 0.119 | – | 0.0445 | 0.0659 | 0.0654 | 0.104 | – | – | 0.0769 | – | 0.0635 | 0.0839 | –
5 | T55V | 0.14 | 0.0846 | 0.0768 | 0.087 | 0.0584 | 0.0492 | 0.0594 | 0.0865 | 0.0648 | – | 0.074 | 0.0594 | 0.103 | 0.0647 | 0.0631 | 0.0891 | – | 0.0577 | 0.086 | 0.067
6 | L56A | 0.0784 | 0.0877 | 0.0595 | – | – | 0.0582 | 0.0688 | 0.0662 | – | – | – | 0.0579 | 0.076 | 0.0512 | – | 0.0292 | – | – | 0.0545 | 0.0732
7 | L56F | 0.004 | 0.0828 | 0.0654 | – | 0.0746 | 0.0774 | 0.0636 | 0.0799 | 0.0768 | 0.0535 | – | 0.061 | 0.0902 | 0.0468 | 0.0555 | – | 0.0698 | 0.0664 | 0.0851 | 0.0678
8 | L56G | 0.0522 | – | 0.0558 | – | 0.0455 | 0.0479 | 0.0409 | 0.0511 | 0.0502 | 0.0487 | – | 0.0458 | 0.0523 | 0.0375 | 0.0573 | 0.0505 | – | 0.0427 | – | –
9 | L56H | 0.048 | 0.0496 | 0.0543 | – | – | – | 0.0331 | 0.0488 | 0.0412 | – | 0.0481 | 0.0732 | 0.0466 | 0.0436 | – | – | – | – | – | –
10 | L56R | 0.0506 | 0.0477 | 0.0437 | 0.0557 | 0.0364 | 0.0652 | 0.0452 | 0.0624 | 0.0396 | 0.0617 | – | – | 0.0486 | – | – | – | – | 0.0327 | 0.0494 | 0.039
11 | S60T | 0.106 | 0.0877 | 0.0724 | 0.0928 | 0.0527 | 0.0597 | 0.0405 | 0.0977 | 0.0897 | – | – | 0.0697 | 0.101 | 0.0658 | – | 0.0679 | 0.0691 | 0.0683 | 0.0889 | 0.101
12 | L61C | 0.113 | 0.103 | 0.0829 | 0.0952 | 0.0571 | 0.0617 | 0.069 | 0.0849 | 0.131 | 0.0601 | 0.0591 | 0.0573 | 0.103 | 0.0665 | 0.064 | 0.0753 | 0.0715 | 0.065 | – | 0.0837
13 | H62K | 0.0891 | – | 0.0655 | – | – | 0.0772 | 0.0549 | – | – | – | – | 0.0693 | 0.104 | – | 0.0531 | 0.0834 | – | – | – | –
14 | G63W | 0.112 | 0.0981 | 0.0649 | 0.0771 | 0.0875 | 0.0596 | 0.0648 | 0.0847 | 0.0497 | 0.0751 | 0.0967 | 0.0597 | 0.0924 | 0.0495 | 0.0508 | 0.0796 | – | 0.0557 | – | 0.0732
15 | V64D | 0.0897 | 0.136 | 0.069 | 0.112 | 0.109 | 0.0609 | 0.0802 | 0.0537 | – | – | 0.0688 | 0.0656 | 0.101 | 0.0718 | – | 0.0884 | 0.0885 | – | – | –
16 | V64E | 0.0996 | – | – | 0.0922 | – | – | 0.0718 | 0.073 | 0.0773 | – | – | 0.0558 | 0.104 | – | 0.0581 | – | – | 0.0605 | 0.0784 | –
17 | V64G | 0.0474 | 0.105 | 0.0769 | – | 0.0585 | – | 0.0677 | 0.0738 | 0.0688 | – | – | 0.0503 | 0.0966 | 0.0617 | – | – | – | – | 0.0641 | –
18 | V64I | 0.0967 | 0.127 | 0.0869 | 0.0715 | – | – | 0.0596 | – | 0.0809 | – | – | 0.0412 | 0.1 | – | – | – | – | 0.0672 | – | 0.0739
19 | V64M | 0.0965 | 0.101 | 0.0645 | 0.0963 | 0.0509 | 0.0608 | 0.0635 | 0.0886 | 0.0892 | 0.0545 | – | 0.0679 | 0.105 | 0.0779 | – | 0.0852 | 0.0766 | 0.0456 | – | –
20 | V64Y | 0.112 | 0.116 | 0.0464 | 0.0948 | 0.0558 | – | 0.02 | 0.105 | 0.0849 | 0.0285 | – | 0.0679 | 0.107 | 0.0759 | – | – | – | 0.0622 | – | –
21 | F65A | 0.111 | 0.113 | 0.0581 | 0.0938 | – | 0.0571 | – | 0.0915 | 0.0642 | 0.0467 | – | 0.0587 | 0.0977 | 0.0339 | 0.0518 | 0.0817 | – | 0.0637 | – | –
22 | K66S | 0.0909 | 0.112 | 0.0815 | 0.087 | 0.0472 | – | 0.0211 | 0.0903 | – | 0.0417 | – | 0.0665 | 0.103 | 0.0775 | – | – | – | 0.055 | 0.0838 | 0.0608
23 | D69G | 0.0635 | – | 0.0653 | 0.0806 | 0.0534 | 0.0665 | 0.0621 | – | – | – | – | 0.0513 | 0.0829 | 0.0551 | 0.0438 | 0.0389 | – | – | – | –
24 | D69P | 0.0918 | 0.114 | 0.0636 | 0.0766 | – | – | 0.0582 | 0.0615 | 0.0739 | 0.0523 | 0.044 | 0.0667 | 0.086 | 0.0617 | 0.0543 | 0.0625 | – | 0.0529 | 0.0607 | 0.0453
25 | T72F | 0.0896 | 0.0837 | 0.0526 | 0.07 | 0.0533 | – | 0.0614 | 0.0755 | 0.0663 | 0.0522 | – | 0.0544 | 0.0823 | 0.0362 | 0.0603 | 0.0714 | 0.0575 | 0.0611 | – | 0.0736
